# Data as given in the supplement of paper PMC11417369.
# ± gives the standard deviation of the averaged measurements. Some of the results follow.
# Test system: PfAP2-LT AP2 domain (GST-tagged)
# Test: gcPBM binding intensity (ln(normalized median fluorescence intensity)); higher = stronger DNA binding
# Outline: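 GST-tagged P. falciparum DNA-binding domains, expressed in E. coli (about 25 μg on average), were applied for 1 h to an Agilent 4 × 180k array of primer-extended double-stranded 36-bp intergenic genomic probes plus negative controls. The binding buffer was 1× PBS with 1% milk, 0.2 mg/ml BSA, 0.5% salmon testes DNA and 0.03% Triton X-100. Bound protein was detected with Alexa488 anti-GST antibody and scanned at 488 nm. Binding intensity is the highest Masliner-normalised natural-log median intensity across replicate spots of either probe orientation.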
row,Sequence,gcPBM binding intensity (ln)
1,ATATCACATTCCACGGTACACACTAATAGAAAAATC [CACACA_site9204],9.09 ± 0.46
2,TAAAATGATAAATGAATGTGATCATTTTATAAAATA [CACACA_negctrl_site674],8.61 ± 0.42
3,AATATTTATAAATTTACACACACACCGGTGAACATA [CACACA_site8579],9.45 ± 0.22
4,ATATATCACATGAACATTAAAAAAAAAAAAGAGGGG [TGCATGCA_negctrl_site187],8.89 ± 0.26
5,AAAATATATACAAGCAAACACACGTAATATATATTA [CACACA_site2152],9.12 ± 0.33
6,AGGTAGTTCTGTATCACACACATATAAATATAAATA [CACACA_site7110],9.12 ± 0.57
7,GCATAAAATATGATCGCACACTGTTTAAAATACTTA [CACACA_site828],8.89 ± 0.48
8,ATATTACTAATTAATGGTACACGTTATAATAAACTA [XGTACX_site7051],8.63 ± 0.33
9,ATACCTTCTTCATTCACACATATACGTAAAATGTTC [CACACA_site5657],9.02 ± 0.47
10,TTTAAACTAGAACAAGTGCAGATATGTATAATAATA,8.77 ± 0.42
11,AAGAAAAGATATATATATAAATATATATATATATAT [TGCATGCA_negctrl_site353],9.57 ± 0.36
12,ATTTATTTTTATCAAGCATGCATAAAAAATAAATTA [TGCATGCA_site440],8.25 ± 0.4
13,TATTTTTAGAAAATAAAGAAGGAGAATTGAAAATAT [CACACA_negctrl_site361],8.41 ± 0.48
14,TTTTATTTTGGAACGTGTACATATAATTATTTATTG [XGTACX_site8094],8.74 ± 0.47
15,GTTCCATATATTACATGTACATATTTTTACATTTAA [XGTACX_site660],9.12 ± 0.36
16,TGATTAATAGCAGGTAGTACTATAATAATATAAATA [XGTACX_site2776],8.69 ± 0.52
17,AGAAGAAAAGAAATATGTACATAAACGTCTGAACTA [XGTACX_site1699],9.05 ± 0.54
18,ATAACAAATATGATAGCATGCTACATATTACAACTT [TGCATGCA_site524],9 ± 0.44
19,TTTAAAAAAAAAAAAAAAAATTCTACATGTAATTTA [CACACA_negctrl_site1205],7.96 ± 0.41
20,TGACATAAATTTAATACACACACAAAGAAAAAAAAA [CACACA_site9354],9.31 ± 0.45
21,ATACATATATATATATGTACACACATTAATAAAAAA [XGTACX_site6874],9.05 ± 0.47
22,TATATTTTAGTTAATGCATGTGTGCATCCATTTAAA [TGCATGCA_site887],8.76 ± 0.34
23,TACCAAAATAGACACACACACAAAATATGTAAATAT [CACACA_site6963],9.92 ± 0.45

row,Sequence,gcPBM binding intensity (ln)
1,TATAAATAAATTTATACACACACACCCATATATATA [CACACA_site8183],9.73 ± 0.17
2,ATAAAGCCATACAATACACACATTTTACATGGCTGT [CACACA_site5756],9.26 ± 0.42
3,TTTGTTATATTTAATACACACATATTATAAACCCAT [CACACA_site3716],8.91 ± 0.44
4,TAAAATTAGGAAATTGCACACAAAAAAAAACATATT [CACACA_site9349],9.1 ± 0.4
5,AAAAAAAAAAGACACACACACAAATACAAATGGTAA [CACACA_site6906],9.65 ± 0.38
6,TAAAACATGTTTTTATATATTATTATTATATTTATA [XGTACX_negctrl_site8],8.45 ± 0.48
7,ACCCAATTTTTTAGTACACACATATAAATATATAAA [CACACA_site4944],8.87 ± 0.46
8,AACACATACAGACACACACACAAAAAAAAAAAAAAA [CACACA_site6322],9.58 ± 0.78
9,ACTACATAAAATGACACACACAAACTTTAAAATTTA [CACACA_site3474],9.26 ± 0.38
10,CACCTGCACGATTGCACACAAATATGTTTTGAAGAT [CACACA_site2103],9.21 ± 0.45
11,TATATTTGGAAACACACACACAAAAAAAAAAAAAAA [CACACA_site2474],9.36 ± 0.42
12,ATATTTTCTAATCAATGTACTTATTCTACACATTAA [XGTACX_site5774],8.72 ± 0.46
13,ATATTTTATGTAAAGGTGCAAAACAACATTAAAAAA,9.04 ± 0.43
14,ATATATACATTTCTATGTACATATGTATATATGTAT [XGTACX_site1522],8.97 ± 0.42
15,TTAATCTAGAGAAATTGTACATTTTATTAACACAAT [XGTACX_site1190],8.54 ± 0.4
16,ATAAAAGAAAACAATAGTACTTTAGTTTTTCTTTTT [XGTACX_site5686],8.46 ± 0.47
17,ATTTTTTTTTTTTGTTTTTTCTTACAAATTAAATGA [CACACA_negctrl_site1457],8.43 ± 0.48
18,AAACCTTTAGAAAATCGTACAAAACATAACCACCTA [XGTACX_site1098],8.91 ± 0.3
19,AAACAAAAGTAGAAGGTAGAGTATTTTATATTTAAA [GTGCAC_negctrl_site503],8.55 ± 0.69
20,AAATAACTCATGGGTTGTACTTAAAAAAAAAAAGAT [XGTACX_site4168],8.81 ± 0.47
21,TTTTTTTTTTTTCACGTGCACTATACATATAAGTAA,8.85 ± 0.34
22,CTCTTGTCATTTTGCACACACACATGGATAGGTTAT [CACACA_site5655],9.81 ± 0.33
23,AATATTGTATATAATAAACACACAATATTAAAAATA [CACACA_site8262],9.03 ± 0.54

row,Sequence,gcPBM binding intensity (ln)
1,GTATTTTAATATAAATGTACATAAATGTTATATATA [XGTACX_site3475],8.56 ± 0.4
2,CTTTAAACCCTGAACACACACAAATACAGACAAAAA [CACACA_site247],9.3 ± 0.35
3,TACACAAGAAAATTCACACACACACGGATATTTATA [CACACA_site7765],9.73 ± 0.22
4,ACGTACTGCCCTAAAGTGCATATATAATATAAACGA [GTGCAC_site9911],8.8 ± 0.44
5,GTATCGAAGTAAATACGTACTTAAATATGTTTAAAA [XGTACX_site1353],8.65 ± 0.47
6,ATATGACTTAAATATGTGCGCATTTTTTTTTTTTTT,8.93 ± 0.38
7,CATATATAAATCATGTGTACGTATTGAGTATCTACT [XGTACX_site6278],8.9 ± 0.39
8,AGGATATATAATTAAGTGCATTAATTCAAAATAAAA [GTGCAC_site9702],8.66 ± 0.49
9,ATAAGATATGTATATACACACATTTATTTACCTATA [CACACA_site7521],9.05 ± 0.33
10,TTATTATTTTATAACACACACATATATATTATATCT [CACACA_site1434],9.11 ± 0.35
11,TAAACAAAATATATATGTACATATATATATATATAT [XGTACX_site6502],9.78 ± 0.32
12,TTTTATTTGACAAGCACACACTTAAATATATTTATA [CACACA_site7557],8.91 ± 0.42
13,AAAACATTTTCAAACTGTACACATAGAACTATGCAT [XGTACX_site4087],8.79 ± 0.38
14,ACATAAGAAGTTATATGTACATATATTTTTTAAATT [XGTACX_site8078],8.71 ± 0.51
15,ATCTAGCCATTTTTTAGTACACATAAATAAAAAAAA [XGTACX_site1257],8.41 ± 0.5
16,CATTAATAACAAAGTTGTACAAGATAATATTATATG [XGTACX_site6832],8.98 ± 0.49
17,ATGTGTGTATTTTATAGTACAGTTACAAGCATTTTT [XGTACX_site6351],9.12 ± 0.29
18,TTTTTCTGTTCTTTTTGTACTTAAATATATTTATTT [XGTACX_site5658],8.85 ± 0.54
19,ACAATGAGGATATATACACACATACATTAAAAAAAT [CACACA_site6955],9.24 ± 0.44
20,AAAAAAGAAAAAAGGACACACATAAATATACACCCG [CACACA_site5590],9.49 ± 0.3
21,CACAAAAATAAACACACACACATATATATATATATA [CACACA_site4704],10.21 ± 0.057
22,AGAATATAATTTTTATGTACATATATTAAATATATT [XGTACX_site8521],8.61 ± 0.33
23,AATTTTCTACAAATGTGTACTAAATAAAATATTACT [XGTACX_site7175],8.63 ± 0.39

row,Sequence,gcPBM binding intensity (ln)
1,TATTTATTTATAAACACACAAATATTTTTATTTATA [CACACA_site6889],8.49 ± 0.32
2,AAGAAAAGCAAACAAGTGCATAATAACAAAAAAAAT [GTGCAC_site9725],9.05 ± 0.51
3,TAAGTTCGAATTACTTAAATATTGATTTTTTTAAAA [TGCATGCA_negctrl_site114],8.16 ± 0.4
4,AAATAAGAGAAAATATGTACATACATATATTTATAT [XGTACX_site6210],8.87 ± 0.48
5,TCATAAAATATGTTTTGTACATAAAATTAAACAAGT [XGTACX_site1763],8.59 ± 0.49
6,ATATAATTTGTTATACTAACTTTTTAATTATTGATA [GTGCAC_negctrl_site443],8.52 ± 0.45
7,AAATATAAATAAAGATGTACATTATCTATATGTGAT [XGTACX_site4863],8.82 ± 0.47
8,AATACGTTTATATATTGTACGTTATATATATATATA [XGTACX_site7452],9.04 ± 0.17
9,ATCCGTGTCTGAAATACACACATGATAATGTGAATG [CACACA_site8210],8.96 ± 0.32
10,ATGGAAACAAGCATCACACATATAAATATATATATA [CACACA_site4979],9.04 ± 0.35
11,ACCATGATAAATGTATTAAATGTATCATAACCTATG [CACACA_negctrl_site513],8.79 ± 0.38
12,AGGAATTTATAAAATTGTACTTTTAATTACCTACAG [XGTACX_site3153],8.6 ± 0.49
13,CAAACATTTTAATGTACACACACCCACAGACAAACA [CACACA_site5522],9.57 ± 0.13
14,TTCTTTTTGAAATATTAACACACATTTTGTTAATTA [CACACA_site9337],8.73 ± 0.52
15,ATATCTTATATCTTCACACATACACAATAAATACAT [CACACA_site5028],8.98 ± 0.43
16,CTAAGAAGTATTTACACACCAACAAGGCGAAAAAAA [CACACA_site2945],8.93 ± 0.45
17,AATGTATTCTCTCATGCACACTTTCTTTAAGGGACC [CACACA_site5245],8.91 ± 0.37
18,TAATATATTATGAGGGGTACATAATATGGTTTATTG [XGTACX_site8301],8.81 ± 0.41
19,ATATTTATATTTATGTGTACATATGAAATAATTATT [XGTACX_site7765],8.71 ± 0.4
20,ATTCATATTAAATATATATATATATATATATATATA [CACACA_negctrl_site484],9.31 ± 0.028
